Results reported in PMC7480101.
No constants are given. Whether binding was seen depends on the method and setting. For some assays here: In cells and extracts the contact can be indirect. Some binding calls cover weakened binding; strength is not graded here. For some assays here: Tags and fused reporters may be left off the sequences shown. Blank lines part the entries; values can stand above or below the binder they belong to.

Sequences of proteins named here, by UniProt entry; tags and fusion partners are left off. A change or cut given only in a name is not applied to a line headed by its entry. A line that says so, or that is headed by a name, gives the form on record, which may keep a tag or linker.
UniProt Q96CV9: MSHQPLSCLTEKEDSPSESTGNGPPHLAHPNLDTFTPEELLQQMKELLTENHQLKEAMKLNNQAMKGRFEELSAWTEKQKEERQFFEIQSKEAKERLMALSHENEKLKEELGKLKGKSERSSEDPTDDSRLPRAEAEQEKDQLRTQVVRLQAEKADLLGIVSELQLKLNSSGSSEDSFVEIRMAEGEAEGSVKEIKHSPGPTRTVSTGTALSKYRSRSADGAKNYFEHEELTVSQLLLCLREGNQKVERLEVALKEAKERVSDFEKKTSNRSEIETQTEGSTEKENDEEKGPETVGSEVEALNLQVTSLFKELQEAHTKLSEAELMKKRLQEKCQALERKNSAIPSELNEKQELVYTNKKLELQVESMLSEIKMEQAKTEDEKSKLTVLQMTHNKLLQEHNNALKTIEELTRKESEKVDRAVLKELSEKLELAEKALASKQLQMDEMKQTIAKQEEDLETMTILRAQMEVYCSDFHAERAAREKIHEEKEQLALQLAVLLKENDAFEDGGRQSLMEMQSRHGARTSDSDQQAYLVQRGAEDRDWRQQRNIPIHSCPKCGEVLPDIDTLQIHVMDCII
3FLAG-hAG-OPTN(4LA, S473E) (Q96CV9, form named): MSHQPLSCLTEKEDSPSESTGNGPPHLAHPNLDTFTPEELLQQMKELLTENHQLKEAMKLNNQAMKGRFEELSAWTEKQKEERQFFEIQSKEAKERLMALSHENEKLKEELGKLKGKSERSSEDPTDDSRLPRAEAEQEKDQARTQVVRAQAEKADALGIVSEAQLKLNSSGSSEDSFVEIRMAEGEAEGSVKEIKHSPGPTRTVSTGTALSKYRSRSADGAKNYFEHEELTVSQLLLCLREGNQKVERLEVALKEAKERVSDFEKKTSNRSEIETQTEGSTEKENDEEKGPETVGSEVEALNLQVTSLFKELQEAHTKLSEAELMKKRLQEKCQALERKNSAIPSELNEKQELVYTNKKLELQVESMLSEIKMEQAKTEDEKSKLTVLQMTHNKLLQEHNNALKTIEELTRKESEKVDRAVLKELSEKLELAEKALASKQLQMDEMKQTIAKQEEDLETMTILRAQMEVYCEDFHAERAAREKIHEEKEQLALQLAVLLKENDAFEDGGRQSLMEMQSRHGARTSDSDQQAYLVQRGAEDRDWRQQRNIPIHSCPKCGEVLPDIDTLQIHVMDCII
hAG-OPTN(128-577, S473E) (Q96CV9, form named): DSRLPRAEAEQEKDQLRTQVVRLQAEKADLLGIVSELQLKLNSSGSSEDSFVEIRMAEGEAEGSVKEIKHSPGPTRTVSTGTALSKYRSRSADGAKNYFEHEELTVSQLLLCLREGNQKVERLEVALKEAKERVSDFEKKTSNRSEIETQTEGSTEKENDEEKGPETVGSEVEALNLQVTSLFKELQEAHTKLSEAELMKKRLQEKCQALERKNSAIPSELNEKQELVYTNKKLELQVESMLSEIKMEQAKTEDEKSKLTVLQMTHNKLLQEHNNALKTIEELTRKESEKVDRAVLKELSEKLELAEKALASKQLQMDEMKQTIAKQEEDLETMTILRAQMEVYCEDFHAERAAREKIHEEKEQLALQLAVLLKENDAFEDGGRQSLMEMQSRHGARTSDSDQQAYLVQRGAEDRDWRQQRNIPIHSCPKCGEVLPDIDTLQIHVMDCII
hAG-OPTN(128-5A-132, S473E) (Q96CV9, form named): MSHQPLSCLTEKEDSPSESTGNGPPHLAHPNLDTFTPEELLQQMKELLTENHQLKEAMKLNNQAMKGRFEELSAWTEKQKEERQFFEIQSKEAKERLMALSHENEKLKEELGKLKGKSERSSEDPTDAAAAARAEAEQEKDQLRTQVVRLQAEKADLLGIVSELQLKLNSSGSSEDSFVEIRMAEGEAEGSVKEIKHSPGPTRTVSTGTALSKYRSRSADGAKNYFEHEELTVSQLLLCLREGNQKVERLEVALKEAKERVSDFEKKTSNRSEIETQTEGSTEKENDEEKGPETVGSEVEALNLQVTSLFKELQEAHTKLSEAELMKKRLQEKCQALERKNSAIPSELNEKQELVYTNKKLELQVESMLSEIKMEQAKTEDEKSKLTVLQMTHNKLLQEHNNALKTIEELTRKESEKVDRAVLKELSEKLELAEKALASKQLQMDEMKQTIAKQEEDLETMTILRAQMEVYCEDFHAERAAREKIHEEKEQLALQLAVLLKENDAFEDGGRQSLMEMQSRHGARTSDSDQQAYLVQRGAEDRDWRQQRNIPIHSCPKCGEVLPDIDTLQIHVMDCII
hAG-OPTN(133-5A-137, S473E) (Q96CV9, form named): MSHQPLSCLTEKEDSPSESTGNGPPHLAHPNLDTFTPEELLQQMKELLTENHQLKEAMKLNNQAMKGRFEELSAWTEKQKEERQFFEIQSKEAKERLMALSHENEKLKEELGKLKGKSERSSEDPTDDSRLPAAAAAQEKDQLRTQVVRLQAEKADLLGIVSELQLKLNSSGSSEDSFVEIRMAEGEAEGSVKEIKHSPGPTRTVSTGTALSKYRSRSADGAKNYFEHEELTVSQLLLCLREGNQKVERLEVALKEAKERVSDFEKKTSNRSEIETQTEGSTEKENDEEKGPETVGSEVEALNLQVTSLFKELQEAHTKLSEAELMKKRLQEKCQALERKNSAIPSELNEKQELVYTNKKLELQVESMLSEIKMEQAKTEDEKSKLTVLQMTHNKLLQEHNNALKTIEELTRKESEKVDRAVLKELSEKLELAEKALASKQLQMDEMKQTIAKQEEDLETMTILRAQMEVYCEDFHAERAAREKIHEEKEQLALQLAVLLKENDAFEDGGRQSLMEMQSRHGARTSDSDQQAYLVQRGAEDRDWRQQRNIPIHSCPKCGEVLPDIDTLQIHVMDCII
hAG-OPTN(138-5A-142, S473E) (Q96CV9, form named): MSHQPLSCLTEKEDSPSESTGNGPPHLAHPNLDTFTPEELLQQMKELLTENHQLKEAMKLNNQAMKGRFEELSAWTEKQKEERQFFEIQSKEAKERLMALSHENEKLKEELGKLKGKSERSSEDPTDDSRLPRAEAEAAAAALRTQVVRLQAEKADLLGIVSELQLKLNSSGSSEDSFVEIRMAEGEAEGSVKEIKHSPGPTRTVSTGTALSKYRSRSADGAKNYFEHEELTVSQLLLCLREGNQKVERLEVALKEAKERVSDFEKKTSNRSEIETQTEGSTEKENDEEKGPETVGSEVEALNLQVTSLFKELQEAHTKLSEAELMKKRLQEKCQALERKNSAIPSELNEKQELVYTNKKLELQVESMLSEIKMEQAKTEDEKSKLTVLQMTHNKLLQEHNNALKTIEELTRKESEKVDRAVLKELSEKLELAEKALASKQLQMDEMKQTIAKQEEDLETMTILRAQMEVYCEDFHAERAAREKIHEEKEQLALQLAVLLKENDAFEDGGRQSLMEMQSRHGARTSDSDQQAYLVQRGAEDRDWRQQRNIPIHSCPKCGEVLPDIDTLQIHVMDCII
hAG-OPTN(143-5A-147, S473E) (Q96CV9, form named): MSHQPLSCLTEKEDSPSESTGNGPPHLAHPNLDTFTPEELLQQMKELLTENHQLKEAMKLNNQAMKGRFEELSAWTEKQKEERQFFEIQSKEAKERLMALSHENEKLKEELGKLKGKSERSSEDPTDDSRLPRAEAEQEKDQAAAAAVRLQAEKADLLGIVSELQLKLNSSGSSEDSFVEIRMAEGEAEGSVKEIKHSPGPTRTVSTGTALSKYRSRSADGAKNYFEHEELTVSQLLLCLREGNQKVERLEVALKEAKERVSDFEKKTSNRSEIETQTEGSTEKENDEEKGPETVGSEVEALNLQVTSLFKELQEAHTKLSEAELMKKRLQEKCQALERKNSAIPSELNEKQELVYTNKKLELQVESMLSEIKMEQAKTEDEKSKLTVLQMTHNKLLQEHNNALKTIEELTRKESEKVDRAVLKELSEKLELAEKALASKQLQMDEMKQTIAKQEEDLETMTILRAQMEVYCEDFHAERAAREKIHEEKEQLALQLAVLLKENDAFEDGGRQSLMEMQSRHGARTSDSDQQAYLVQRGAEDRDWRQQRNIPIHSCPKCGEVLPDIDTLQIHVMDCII
hAG-OPTN(148-5A-152, S473E) (Q96CV9, form named): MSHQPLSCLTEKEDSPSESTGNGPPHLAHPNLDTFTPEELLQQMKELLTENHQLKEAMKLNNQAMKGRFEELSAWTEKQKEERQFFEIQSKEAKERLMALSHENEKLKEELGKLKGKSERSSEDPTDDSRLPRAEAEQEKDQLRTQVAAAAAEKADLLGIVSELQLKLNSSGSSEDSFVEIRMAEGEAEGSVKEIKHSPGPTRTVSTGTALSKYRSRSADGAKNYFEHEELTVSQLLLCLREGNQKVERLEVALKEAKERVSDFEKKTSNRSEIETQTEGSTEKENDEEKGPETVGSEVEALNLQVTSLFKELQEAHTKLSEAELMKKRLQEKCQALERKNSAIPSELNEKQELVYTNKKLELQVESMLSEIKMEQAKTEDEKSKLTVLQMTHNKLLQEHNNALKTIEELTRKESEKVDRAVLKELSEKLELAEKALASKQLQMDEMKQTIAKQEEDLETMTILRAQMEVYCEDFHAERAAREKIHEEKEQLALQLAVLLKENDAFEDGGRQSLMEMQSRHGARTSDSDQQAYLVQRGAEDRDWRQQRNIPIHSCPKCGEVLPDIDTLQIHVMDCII
hAG-OPTN(150-577, S473E) (Q96CV9, form named): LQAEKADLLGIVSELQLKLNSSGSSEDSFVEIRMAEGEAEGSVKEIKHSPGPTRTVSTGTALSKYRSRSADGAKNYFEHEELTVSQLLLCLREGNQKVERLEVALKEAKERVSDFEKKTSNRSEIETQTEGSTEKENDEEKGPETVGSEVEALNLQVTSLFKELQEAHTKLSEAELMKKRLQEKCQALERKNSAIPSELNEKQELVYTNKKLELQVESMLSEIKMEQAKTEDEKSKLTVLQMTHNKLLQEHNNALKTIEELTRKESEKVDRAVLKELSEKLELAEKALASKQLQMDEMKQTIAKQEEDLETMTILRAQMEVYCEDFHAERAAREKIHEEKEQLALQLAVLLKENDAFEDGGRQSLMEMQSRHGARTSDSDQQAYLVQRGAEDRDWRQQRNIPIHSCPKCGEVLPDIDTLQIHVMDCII
hAG-OPTN(170-577, S473E) (Q96CV9, form named): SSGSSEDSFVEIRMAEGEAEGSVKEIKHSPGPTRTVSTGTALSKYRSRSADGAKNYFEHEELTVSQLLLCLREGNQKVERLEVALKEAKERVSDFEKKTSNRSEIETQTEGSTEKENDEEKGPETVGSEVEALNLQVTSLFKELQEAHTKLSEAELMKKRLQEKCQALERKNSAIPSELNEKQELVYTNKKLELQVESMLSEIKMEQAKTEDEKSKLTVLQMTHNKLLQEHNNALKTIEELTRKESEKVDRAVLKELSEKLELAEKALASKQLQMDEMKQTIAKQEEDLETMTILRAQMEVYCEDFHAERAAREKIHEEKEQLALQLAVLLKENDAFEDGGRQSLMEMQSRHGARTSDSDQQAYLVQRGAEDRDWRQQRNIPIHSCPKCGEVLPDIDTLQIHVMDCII
hAG-OPTN(190-577, S473E) (Q96CV9, form named): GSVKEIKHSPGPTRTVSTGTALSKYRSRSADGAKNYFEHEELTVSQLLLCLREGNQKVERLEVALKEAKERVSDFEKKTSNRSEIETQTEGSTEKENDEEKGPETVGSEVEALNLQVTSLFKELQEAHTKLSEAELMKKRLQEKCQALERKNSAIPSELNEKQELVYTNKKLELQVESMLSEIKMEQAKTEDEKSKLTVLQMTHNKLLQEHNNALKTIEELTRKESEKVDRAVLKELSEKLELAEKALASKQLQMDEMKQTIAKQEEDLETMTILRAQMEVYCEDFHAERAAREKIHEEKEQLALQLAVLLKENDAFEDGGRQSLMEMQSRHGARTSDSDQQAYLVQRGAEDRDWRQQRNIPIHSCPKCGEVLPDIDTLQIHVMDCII
hAG-OPTN(210-577, S473E) (Q96CV9, form named): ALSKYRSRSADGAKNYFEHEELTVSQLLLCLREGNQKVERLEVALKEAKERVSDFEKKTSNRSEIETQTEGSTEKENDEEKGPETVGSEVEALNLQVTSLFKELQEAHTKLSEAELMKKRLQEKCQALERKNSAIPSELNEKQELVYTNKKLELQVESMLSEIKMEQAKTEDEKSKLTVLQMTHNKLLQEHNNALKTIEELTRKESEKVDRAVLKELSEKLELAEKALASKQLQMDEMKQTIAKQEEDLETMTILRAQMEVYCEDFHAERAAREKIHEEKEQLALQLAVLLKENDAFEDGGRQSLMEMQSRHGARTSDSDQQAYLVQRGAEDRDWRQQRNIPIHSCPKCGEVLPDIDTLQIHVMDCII
hAG-OPTN(301-577, S473E) (Q96CV9, form named): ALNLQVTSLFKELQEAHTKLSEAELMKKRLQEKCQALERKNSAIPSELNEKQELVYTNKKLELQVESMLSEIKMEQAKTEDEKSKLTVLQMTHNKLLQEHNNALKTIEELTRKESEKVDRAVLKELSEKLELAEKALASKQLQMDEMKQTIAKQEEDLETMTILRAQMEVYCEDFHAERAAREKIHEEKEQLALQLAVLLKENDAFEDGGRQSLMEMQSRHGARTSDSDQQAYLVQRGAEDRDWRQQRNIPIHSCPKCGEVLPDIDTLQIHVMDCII
hAG-OPTN(401-577, S473E) (Q96CV9, form named): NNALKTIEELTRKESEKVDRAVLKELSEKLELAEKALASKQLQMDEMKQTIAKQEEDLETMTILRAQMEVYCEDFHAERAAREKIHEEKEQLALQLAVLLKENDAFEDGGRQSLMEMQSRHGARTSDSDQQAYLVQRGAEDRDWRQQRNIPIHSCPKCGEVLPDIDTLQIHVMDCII

Key:
hAG-OPTN (human) = hAG-OPTN (human) (UniProt Q96CV9); test: Fluoppi (phase-separated fluorescent foci in cells); hAG-tagged autophagy adaptor and HA-Ash-6Ub transiently co-expressed in HeLa (WT, Penta KO, FIP200 KO, ATG5 KO, ATG9A KO) or HCT116 (WT, TBK1-/-) cells; foci formation and incorporation of a third protein into the foci read by immunostaining and confocal microscopy; some samples with 2 µM BX-795 for 15 h
[1] = target: 3FLAG-hAG-OPTN(4LA, S473E) (human) (UniProt Q96CV9); test: co-IP; HeLa cells transiently expressing 3FLAG-hAG-OPTN and HA-Ash-6Ub; 1 mM DSP cross-linking, 1% NP-40 buffer (20 mM Tris-HCl pH 8.0, 150 mM NaCl, 1 mM EDTA), sonication, anti-DDDDK-tag gel 90 min at 4°C, immunoblot
[2] = target: 3FLAG-hAG-OPTN(M44Q/L54Q, S473E) (human) (UniProt Q96CV9); test: as above
[3] = target: hAG-OPTN(128-577, S473E) (human) (UniProt Q96CV9); test: Fluoppi (phase-separated fluorescent foci in cells); hAG-tagged autophagy adaptor and HA-Ash-6Ub transiently co-expressed in HeLa (WT, Penta KO, FIP200 KO, ATG5 KO, ATG9A KO) or HCT116 (WT, TBK1-/-) cells; foci formation and incorporation of a third protein into the foci read by immunostaining and confocal microscopy; some samples with 2 µM BX-795 for 15 h
[4] = target: hAG-OPTN(128-5A-132, S473E) (human) (UniProt Q96CV9); test: as above
[5] = target: hAG-OPTN(133-5A-137, S473E) (human) (UniProt Q96CV9); test: as above
[6] = target: hAG-OPTN(138-5A-142, S473E) (human) (UniProt Q96CV9); test: as above
[7] = target: hAG-OPTN(143-5A-147, S473E) (human) (UniProt Q96CV9); test: as above
[8] = target: hAG-OPTN(148-5A-152, S473E) (human) (UniProt Q96CV9); test: as above
[9] = target: hAG-OPTN(150-577, S473E) (human) (UniProt Q96CV9); test: as above
[10] = target: hAG-OPTN(170-577, S473E) (human) (UniProt Q96CV9); test: as above
[11] = target: hAG-OPTN(190-577, S473E) (human) (UniProt Q96CV9); test: as above
[12] = target: hAG-OPTN(210-577, S473E) (human) (UniProt Q96CV9); test: as above
[13] = target: hAG-OPTN(301-577, S473E) (human) (UniProt Q96CV9); test: as above
[14] = target: hAG-OPTN(401-577, S473E) (human) (UniProt Q96CV9); test: as above
hAG-OPTN(S473E) (human) = hAG-OPTN(S473E) (human) (UniProt Q96CV9); test: as above

- binding (hAG-OPTN (human)): no binding
B1: WIPI2 (protein, UniProt Q9Y4P8 1-454)
chain: MNLASQSGEAGAGQLLFANFNQDNTEVKGASRAAGLGRRAVVWSLAVGSKSGYKFFSLSSVDKLEQIYECTDTEDVCIVERLFSSSLVAIVSLKAPRKLKVCHFKKGTEICNYSYSNTILAVKLNRQRLIVCLEESLYIHNIRDMKVLHTIRETPPNPAGLCALSINNDNCYLAYPGSATIGEVQVFDTINLRAANMIPAHDSPLAALAFDASGTKLATASEKGTVIRVFSIPEGQKLFEFRRGVKRCVSICSLAFSMDGMFLSASSNTETVHIFKLETVKEKPPEEPTTWTGYFGKVLMASTSYLPSQVTEMFNQGRAFATVRLPFCGHKNICSLATIQKIPRLLVGAADGYLYMYNLDPQEGGECALMKQHRLDGSLETTNEILDSASHDCPLVTQTYGAAAGKGTYVPSSPTRLAYTDDLGAVGGACLEDEASALRLDEDSEHPPMILRTD

- binding (hAG-OPTN (human)): binds
B2: 3FLAG-TBK1 (enzyme, UniProt Q9UHD2 1-729)
chain: MQSTSNHLWLLSDILGQGATANVFRGRHKKTGDLFAIKVFNNISFLRPVDVQMREFEVLKKLNHKNIVKLFAIEEETTTRHKVLIMEFCPCGSLYTVLEEPSNAYGLPESEFLIVLRDVVGGMNHLRENGIVHRDIKPGNIMRVIGEDGQSVYKLTDFGAARELEDDEQFVSLYGTEEYLHPDMYERAVLRKDHQKKYGATVDLWSIGVTFYHAATGSLPFRPFEGPRRNKEVMYKIITGKPSGAISGVQKAENGPIDWSGDMPVSCSLSRGLQVLLTPVLANILEADQEKCWGFDQFFAETSDILHRMVIHVFSLQQMTAHKIYIHSYNTATIFHELVYKQTKIISSNQELIYEGRRLVLEPGRLAQHFPKTTEENPIFVVSREPLNTIGLIYEKISLPKVHPRYDLDGDASMAKAITGVVCYACRIASTLLLYQELMRKGIRWLIELIKDDYNETVHKKTEVVITLDFCIRNIEKTVKVYEKLMKINLEAAELGEISDIHTKLLRLSSSQGTIETSLQDIDSRLSPGGSLADAWAHQEGTHPKDRNVEKLQVLLNCMTEIYYQFKKDKAERRLAYNEEQIHKFDKQKLYYHATKAMTHFTDECVKKYEAFLNKSEEWIRKMLHLRKQLLSLTNQCFDIEEEVSKYQEYTNELQETLPQKMFTASSGIKHTMTPIYPSSNTLVEMTLGMKKLKEEMEGVVKELAENNHILERFGSLTMDGGLRNVDCL

- binding [1]: binds
- binding [2]: no binding
- binding [3]: no binding
- binding [4]: binds
- binding [5]: binds
- binding [6]: binds
- binding [7]: binds
- binding [8]: binds
- binding [9]: no binding
- binding [10]: no binding
- binding [11]: no binding
- binding [12]: no binding
- binding [13]: no binding
- binding [14]: no binding
- binding (hAG-OPTN(S473E) (human)): binds
B3: TBK1 (enzyme, UniProt Q9UHD2 1-729)
chain: B2 chain
